# Source: the supplement of paper PMC8728848
# This is one part of the list.
# B1: CPA (Cicer arietinum) (protein)
# chain: MAFSYLNLVLVTLTTLFFLQTTKVKSQKSVSFHITNFTISRPSITLQGTAEFLPNVLLLNDIEHPVFVVGRALYSKPITLWNNKTGKVASFVTSFTFDVQDLKKTVPGHGLVFFLAPSGSEIPFSSDGGNLGVVDGKNAFNRFVGVEFDNFVNSWDPKYSHVGINVNSLISTKTVKWNRVSGELVKVSIVYDSVSTTLTVIVTYKNGQISILSQLVDLKAVLPDTVNIGFSASTTLVSPRQLHNIHSWSFTSTFET
# What was measured:
# Assay in all cases: glycan array binding signal (z-score within array); higher = stronger binding
# Conditions in all cases: glycan notation: IUPAC condensed, linker removed
# [1] = molecular target: Neu5Ac(a2-8)Neu5Ac
# Method in brief: (§1)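 The binding signal is a Z-score computed within each array and averaged over linkers. Arrays of the same protein sequence at different concentrations or buffers were also averaged together. Data originate from 3228 arrays in the Consortium for Functional Glycomics database, kept only where the protein sequence was available.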
# [2] = molecular target: Neu5Ac(a2-8)Neu5Ac(a2-3)Gal(b1-3)GalNAc(b1-4)[Neu5Ac(a2-3)]Gal(b1-4)Glc
# Method in brief: as §1
# [3] = molecular target: Neu5Ac(a2-8)Neu5Ac(a2-3)Gal(b1-3)GalNAc(b1-4)[Neu5Ac(a2-8)Neu5Ac(a2-3)]Gal(b1-4)Glc
# Method in brief: as §1
# [4] = molecular target: Neu5Ac(a2-8)Neu5Ac(a2-3)Gal(b1-4)Glc
# Method in brief: as §1
# [5] = molecular target: Neu5Ac(a2-8)Neu5Ac(a2-3)Gal(b1-4)GlcNAc
# Method in brief: as §1
# [6] = molecular target: Neu5Ac(a2-8)Neu5Ac(a2-3)[Gal(b1-3)GalNAc(b1-4)]Gal(b1-4)Glc
# Method in brief: as §1
# [7] = molecular target: Neu5Ac(a2-8)Neu5Ac(a2-3)[GalNAc(b1-4)]Gal(b1-4)Glc
# Method in brief: as §1
# [8] = molecular target: Neu5Ac(a2-8)Neu5Ac(a2-8)Neu5Ac
# Method in brief: as §1
# [9] = molecular target: Neu5Ac(a2-8)Neu5Ac(a2-8)Neu5Ac(a2-3)Gal(b1-4)Glc
# Method in brief: as §1
# [10] = molecular target: Neu5Ac(a2-8)Neu5Ac(a2-8)Neu5Ac(a2-3)[Gal(b1-3)GalNAc(b1-4)]Gal(b1-4)Glc
# Method in brief: as §1
# [11] = molecular target: Neu5Ac(a2-8)Neu5Ac(a2-8)Neu5Ac(a2-3)[GalNAc(b1-4)]Gal(b1-4)Glc
# Method in brief: as §1
# [12] = molecular target: Neu5Ac(a2-8)Neu5Ac(a2-8)Neu5Ac(a2-8)Neu5Ac(a2-3)[GalNAc(b1-4)]Gal(b1-4)Glc
# Method in brief: as §1
# [13] = molecular target: Neu5Ac(a2-8)Neu5Gc(a2-3)Gal(b1-4)GlcNAc
# Method in brief: as §1
# [14] = molecular target: Neu5Ac(b2-6)Gal(b1-4)GlcNAc
# Method in brief: as §1
# [15] = molecular target: Neu5Ac(b2-6)GalNAc
# Method in brief: as §1
# [16] = molecular target: Neu5Ac9Ac(a2-3)Gal(b1-3)GlcNAc
# Method in brief: as §1
# [17] = molecular target: Neu5Ac9Ac(a2-3)Gal(b1-4)GlcNAc
# Method in brief: as §1
# [18] = molecular target: Neu5Ac9Ac(a2-6)Gal(b1-4)GlcNAc
# Method in brief: as §1
# [19] = molecular target: Neu5Gc(a2-3)Gal(b1-3)GlcNAc
# Method in brief: as §1
# [20] = molecular target: Neu5Gc(a2-3)Gal(b1-3)[Fuc(a1-4)]GlcNAc
# Method in brief: as §1
# [21] = molecular target: Neu5Gc(a2-3)Gal(b1-4)Glc
# Method in brief: as §1
# [22] = molecular target: Neu5Gc(a2-3)Gal(b1-4)GlcNAc
# Method in brief: as §1
# [23] = molecular target: Neu5Gc(a2-3)Gal(b1-4)GlcNAc(b1-3)Gal(b1-4)GlcNAc(b1-2)Man(a1-3)[Neu5Gc(a2-3)Gal(b1-4)GlcNAc(b1-3)Gal(b1-4)GlcNAc(b1-2)Man(a1-6)]Man(b1-4)GlcNAc(b1-4)GlcNAc
# Method in brief: as §1
# [24] = molecular target: Neu5Gc(a2-3)Gal(b1-4)[Fuc(a1-3)]GlcNAc
# Method in brief: as §1
# [25] = molecular target: Neu5Gc(a2-6)Gal(b1-4)GlcNAc
# Method in brief: as §1
# [26] = molecular target: Neu5Gc(a2-6)GalNAc
# Method in brief: as §1
# [27] = molecular target: Neu5Gc(a2-8)Neu5Ac(a2-3)Gal(b1-4)GlcNAc
# Method in brief: as §1
# [28] = molecular target: Neu5Gc(a2-8)Neu5Gc(a2-3)Gal(b1-4)GlcNAc
# Method in brief: as §1
# [29] = molecular target: Neu5Gc(a2-8)Neu5Gc(a2-3)Gal(b1-4)GlcNAc(b1-3)Gal(b1-4)GlcNAc
# Method in brief: as §1
# [30] = molecular target: Neu5Gc(a2-8)Neu5Gc(a2-6)Gal(b1-4)GlcNAc
# Method in brief: as §1
# [31] = molecular target: Neu5Gc(b2-6)Gal(b1-4)GlcNAc
# Method in brief: as §1
binder,measurement,setting,value
B1,glycan array binding signal (z-score),[1],-0.389
same,glycan array binding signal (z-score),[2],-0.668
same,glycan array binding signal (z-score),[3],-0.364
same,glycan array binding signal (z-score),[4],-0.501
same,glycan array binding signal (z-score),[5],-0.647
same,glycan array binding signal (z-score),[6],0.008
same,glycan array binding signal (z-score),[7],0.032
same,glycan array binding signal (z-score),[8],-0.326
same,glycan array binding signal (z-score),[9],-0.579
same,glycan array binding signal (z-score),[10],-0.101
same,glycan array binding signal (z-score),[11],0.349
same,glycan array binding signal (z-score),[12],-0.385
same,glycan array binding signal (z-score),[13],-0.706
same,glycan array binding signal (z-score),[14],-0.458
same,glycan array binding signal (z-score),[15],-0.624
same,glycan array binding signal (z-score),[16],-0.445
same,glycan array binding signal (z-score),[17],-0.168
same,glycan array binding signal (z-score),[18],-0.617
same,glycan array binding signal (z-score),[19],-0.621
same,glycan array binding signal (z-score),[20],-0.613
same,glycan array binding signal (z-score),[21],-0.318
same,glycan array binding signal (z-score),[22],-0.402
same,glycan array binding signal (z-score),[23],-0.103
same,glycan array binding signal (z-score),[24],-0.398
same,glycan array binding signal (z-score),[25],-0.31
same,glycan array binding signal (z-score),[26],0.06
same,glycan array binding signal (z-score),[27],-0.396
same,glycan array binding signal (z-score),[28],-0.626
same,glycan array binding signal (z-score),[29],-0.35
same,glycan array binding signal (z-score),[30],-0.362
same,glycan array binding signal (z-score),[31],-0.382
